{
  "source": "PubChem BioAssay AID1508624",
  "about": "(National Center for Advancing Translational Sciences (NCATS), 2021)",
  "note": "In all, about 48,000 compounds went through this assay and about 120 (0.25%) were called active. Inconclusive results, whose numbers are uncertain, are shown with a selection of clear calls. Calls come from the whole dose curve; as a rule, active = well fitted activation curve with a large enough effect; inconclusive = small, poorly fitted or top-dose-only effect, or another doubt; inactive = no such curve, though single readings can be large or run the other way. A potency beside an inconclusive call is a rough fit, not a confirmed value. Potency is the fitted concentration of half-maximal effect; tags give direction and shape of the fitted curve.",
  "data": [
    {"assay": "Primary qHTS for Identification of Small Molecule Activators of Huntingtin-Antisense Promoter Activity; note: nearly all actives have a fitted effect of over 55% in size", "conditions": "HEK293 HTT-AS promoter firefly luciferase reporter (activity 0% = vehicle and -100% = no light), 24 h; series mostly up to 57.5 µM", "how_it_was_run": "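HEK293 cells carrying firefly luciferase reporters were seeded at 2,500 per well in Opti-MEM and cultured for 24 h. They were then treated with compounds at up to 57.5 uM final for 24 h at 37 degrees C before Dual-Glo luminescence readout.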", "values": [
      {"smiles": "CCOc1ccc(-c2cc3c(=O)n(CC(=O)NCc4ccc(Cl)cc4)ccn3n2)cc1", "Potency": "inconclusive: 0.178 µM [activator, full curve, poor fit]"},
      {"smiles": "CC1CCc2nc3ncn(Cc4ccccc4F)c(=O)c3cc2C1", "note": "(stereo not given)", "Potency": "inconclusive: 15.8 µM [activator, partial curve]"},
      {"smiles": "Nc1c(C(=O)Nc2ccccc2)nnn1Cc1ccc(F)cc1Cl", "Potency": "inconclusive: 1.58 µM [activator, full curve, poor fit]"},
      {"smiles": "CCOc1ccccc1C(=O)Nc1nc2c(s1)CC(C)CC2", "note": "(stereo not given)", "Potency": "inconclusive: 39.8 µM [activator, partial curve, poor fit]"},
      {"smiles": "Cc1ccc(C(=O)Nc2cc3c(cc2N2CCCC2)n(C)c(=O)c(=O)n3C)cc1", "Potency": "inactive"},
      {"smiles": "COc1ccc(C(=O)Nc2cc(C(C)C)c(O)c(S(=O)(=O)c3ccc(Cl)cc3)c2C)cc1", "Potency": "inconclusive: 1.26 µM [activator, partial curve, poor fit]"},
      {"smiles": "O=C(O)Cc1sc(Nc2ccccc2Cl)nc1-c1ccccc1", "Potency": "inconclusive: 14.1 µM [activator, partial curve, poor fit]"},
      {"smiles": "Cc1c(-c2nsc(NC(=O)c3cccs3)n2)nnn1-c1ccc(Br)cc1", "Potency": "inconclusive: 3.98 µM [activator, single point]"},
      {"smiles": "O=C(NCCSc1c(-c2ccc(F)cc2)[nH]c2ccccc12)c1ccc(S(=O)(=O)N2CCOCC2)cc1", "Potency": "inactive"},
      {"smiles": "O=C(C1CC1)N1CCN(c2nc3ccc(F)cc3s2)CC1", "Potency": "inconclusive: 1.78 µM [activator, partial curve, poor fit]"},
      {"smiles": "CCCc1nc2ccccc2n2c(-c3cccc(C)c3)c3c(=O)n(C)c(=O)n(C)c3c12", "Potency": "inconclusive: 0.178 µM [activator, partial curve, poor fit]"},
      {"smiles": "CC(C)NC(=O)c1ccc(C=O)cc1", "Potency": "inconclusive: 15.8 µM [activator, partial curve, poor fit]"},
      {"smiles": "CCN1CCN(c2ncnc3c2cnn3-c2ccc(C)cc2)CC1", "Potency": "inconclusive: 2 µM [activator, single point]"},
      {"smiles": "CCOc1nc(NC(=O)NS(=O)(=O)Oc2ccccc2)nc(-c2ccccc2)n1", "Potency": "inconclusive: 14.1 µM [activator, single point]"},
      {"smiles": "Cc1c(C(=O)Nc2ccc(C(C)C)cc2)sc2nc[nH]c(=O)c12", "Potency": "inconclusive: 2.24 µM [activator, full curve]"},
      {"smiles": "Fc1ccc(Cc2cn3cc(-c4ccccc4)nc3s2)cc1", "Potency": "inconclusive: 0.199 µM [activator, full curve, poor fit]"},
      {"smiles": "CCOC(=O)c1ccc(NC(=O)c2csnn2)cc1", "Potency": "inconclusive: 8.91 µM [activator, full curve]"},
      {"smiles": "CSc1ccc(Cn2nnc(C(=O)Nc3ccc(C)cc3Cl)c2N)cc1", "Potency": "inactive"},
      {"smiles": "CCn1c(-c2nonc2N)nc2cnc(Oc3cccc(NC(=O)c4ccc(OCCN5CCOCC5)cc4)c3)cc21", "Potency": "inactive"},
      {"smiles": "CCOc1ccc(CCNc2nc3ccccc3n3c(C)nnc23)cc1OCC", "Potency": "inactive"},
      {"smiles": "COc1ccc(C(=O)Nc2nnc(C(C)C)s2)cc1OC", "Potency": "inconclusive: 12.6 µM [activator, partial curve]"},
      {"smiles": "CCc1ccc(CNC(=O)c2cc3ccccn3n2)cc1", "Potency": "inconclusive: 17.8 µM [activator, single point]"},
      {"smiles": "CCCn1c(=O)c2[nH]c(C34CC5CC3C[C@@H](C5)C4)nc2n(CCC)c1=O", "Potency": "inactive"},
      {"smiles": "c1ccc(-c2noc(-c3cccnc3NCc3ccco3)n2)cc1", "Potency": "inconclusive: 10 µM [activator, partial curve]"},
      {"smiles": "Cc1c(-c2cccc(NC(=O)Nc3ccc(Cl)cc3)c2)nc2ncccn12", "Potency": "inactive"},
      {"smiles": "COc1ccc(CN(C(=O)c2cc3ccccc3oc2=O)C2CCS(=O)(=O)C2)cc1OC", "note": "(stereo not given)", "Potency": "active: 11.2 µM"},
      {"smiles": "O=C(NCCN1CCN(c2cccc(Cl)c2)CC1)Nc1ccccc1C(F)(F)F", "Potency": "inactive"},
      {"smiles": "Cc1ccc(CNc2nc(-c3ccco3)nn2S(=O)(=O)c2ccc3ccccc3c2)cc1", "Potency": "inconclusive: 11.2 µM [activator, partial curve, poor fit]"},
      {"smiles": "CCc1cc(C(=O)Nc2sc(C)c(CC)c2C#N)no1", "Potency": "inconclusive: 3.55 µM [activator, full curve, poor fit]"},
      {"smiles": "CC(=O)c1ccc(NC(=O)c2noc3c2CSc2ccccc2-3)cc1", "Potency": "inconclusive: 12.6 µM [activator, partial curve, poor fit]"},
      {"smiles": "COc1cccc(Nc2sc(C(=O)c3ccc(Cl)cc3)c(N)c2C(=O)NCc2ccc(C)cc2)c1", "Potency": "inactive"},
      {"smiles": "Nc1ccc(N=Nc2ccccc2)c(N)n1", "Potency": "inconclusive: 14.1 µM [activator, partial curve, poor fit]"},
      {"smiles": "Cc1ccccc1C(=O)OCc1cc(=O)n2nc(C(C)C)sc2n1", "Potency": "inconclusive: 2 µM [activator, full curve, poor fit]"},
      {"smiles": "O=C(O)c1cc(O)c(O)c(O)c1", "Potency": "inactive"},
      {"smiles": "Cc1cccc(CNC(=O)CN2C(=O)CCn3nc(-c4cn(C)c5ccccc45)cc32)c1", "Potency": "inactive"},
      {"smiles": "CCOc1ccc(C(=O)Nc2ccc3c(c2)OCCO3)cc1Br", "Potency": "inconclusive: 10 µM [activator, partial curve, poor fit]"},
      {"smiles": "CCOc1ccc(NC(=O)CSc2oc(-c3ccc(C)cc3)nc2S(=O)(=O)c2ccc(C)cc2)cc1", "Potency": "inactive"},
      {"smiles": "C[C@]12CC[C@H](O)CC1=CC[C@@H]1[C@H]2CC[C@]2(C)C(c3cccnc3)=CC[C@H]12", "Potency": "inactive"},
      {"smiles": "O=c1oc2ccccc2cc1-c1nc(-c2cccs2)no1", "Potency": "inconclusive: 22.4 µM [activator, partial curve, poor fit]"},
      {"smiles": "O=C(/C=C/c1ccccc1)OCc1ccccc1", "Potency": "inconclusive: 12.6 µM [activator, partial curve, poor fit]"},
      {"smiles": "COc1ccc(-c2noc(CSc3nc4ccccc4[nH]3)n2)cc1", "Potency": "inactive"},
      {"smiles": "Cc1cccc(Nc2nc(-c3ccncc3)cs2)c1", "Potency": "inconclusive: 4.85 µM [activator, full curve, poor fit]"},
      {"smiles": "CCCCc1nn2c(=O)cc(COC(=O)c3ccccc3C)nc2s1", "Potency": "inconclusive: 11.2 µM [activator, partial curve]"},
      {"smiles": "COc1ccc(-c2cc3ccc(O)c(CN4CCCC4)c3oc2=O)cc1OC", "Potency": "inconclusive: 14.1 µM [activator, partial curve, poor fit]"},
      {"smiles": "CCC1CN(C(=O)N2CCC(C(=O)N3CCN(c4cc(C)ccc4C)CC3)CC2)c2ccccc2O1", "note": "(stereo not given)", "Potency": "inactive"}
    ]}
  ]
}
